Measurements as given in the RNAGym collection of RNA variant scans (doi:10.1101/gad.245936.114).
This sample is rich in variants without activity.

B1: tRNA (parent)
chain: CUCUCGGUAGCCAAGUUGGUUUAAGGCGCAAGACUUUAAUUUAUCACUACGAAAUCUUGAGAUCGGGCGUUCGACUCGCCCCCGGGAGAUUUUUUCCUCGAGCAA

Variants of: B1
Assay: nonsense suppression (GFP-seq) (ratio to wild type); higher = more function; SUP4oc tRNA, yeast GFP reporter sort-seq
Method in brief: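 Sorted GFP/RFP bins of yeast were each Illumina-sequenced with a phred ≥30 cutoff; the cells held a genome-integrated ochre-suppressor tRNA variant from a library with ~3% random mutations, a galactose-driven GFP ochre reporter, and RFP. Culture was in raffinose/galactose medium containing 80 mg/L adenine. Nonsense suppression, termed GFPSEQ, is the median GFP/RFP of the bins weighted by each variant's estimated cell share per bin, relative to the unmutated parent tRNA, for variants reaching ≥100 reads and ≥30 cells.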

Nonsense suppression, ≤ 0.026:
CUCUCGGUAGCCAAAUUGGUUUAAGGCGCAAGACUUUAAUUUAUCACUACGAAAUCUUGAGAUCAGGCGUUCGACUCGCCCCCGGGAGAUUUUUUCCUCGAGCAA
CUCUCGGUAGCCAAAUUGGUUUAAGGCGCAAGACUUUAAUUUAUCACUACGAAAUCUUGAGAUCGCGCGUACGACUCGCCCCCGCGAGAUUUUUUCCUCGAGCAA
CUCUCGGUAGCCAAAUUGGUUUAAGGCGCAAGACUUUAAUUUAUCACUACGAAAUCUUGAGAUCGGGCGUUCAACUCGCCCCCGGGAGAUUUUUUCCUCGAGCAA
CUCUCGGUAGCCAAAUUGGUUUAAGGCGCAAGACUUUAAUUUAUCACUACGAAAUCUUGAGAUCGGGCGUUCGACUCGCCCCCAGGAGAUUUUUUCCUCGAGCAA
CUCUCGGUAGCCAAAUUGGUUUAAGGCGCAAGACUUUAAUUUAUCACUACGAAAUCUUGAGAUCGGGCGUUCGACUCGCCCCCGGCAGAUUUUUUCCUCGAGCAA
CUCUCGGUAGCCAAACUGGUUUUAGGCGCAAGACUUUAAUUUAUCACUACGAAAUCUUGAAAUCGGGCGUUCGACUCGCCCCCGGGAGAUUUUUUCCUCGAGCAA
CUCUCGGUAGCCAAAGUGGUUUAAGGCGCAAGACUUUAAUUUAUCACUACGAAAACUUGAGAUCGGGCGUUCGACUCGCCCCCGGGAGAUUUUUUCCUCGAGCAA
CUCUCGGUAGCCAAAUAGGUUUAAAGCGCAAGACUUUAAUUUAUCACUACGAAAUCUUGAGAUCGGGCGUUCGACUCGUCCCCGGGGGAUUUUUUCCUCGAGCAA
CUCUCGGUAGCCAAAUCGGUUUAAGGCGCAAGCCUUUAAUUUAUCACUACGAAAUCUAGAGAUCGGGCGCUCGACUCCCCCCCGGGAGAUUUUUUCCUCGAGCAA
CUCUCGGUAGCCAAAUUGGCUUAAGGGGCAAGACUUUAAUUUAUCACUACGAAUUCAUGAGAUCGGGCGAUCGACUCGCCCCCGGGAGAUUUUUUCCUCGAGCAA
CUCUCGGUAGCCAAAUUGGUAUAAGGCGCAAGACUUUAAUUUAUCACUACGAAAUCUUGAGAUCGGACGUUCGACUCGCCCCCGGGAGAUUUUUUCCUCGAGCAA
CUCUCGGUAGCCAAAUUGGUCUAAGGCGCAAGACUUUAAUUUAUCACUACGAAAUCUUGAGAUCGGGCGUUCGACUCGCCCACGGGAGAUUUUUUCCUCGAGCAA
CUCUCGGUAGCCAAAUUGGUUAAGGGCGCAAGAUUUUAAUUUAUCACUACGAAAUCUUGAGAUCGGGCGUUCGACUCGCCCCCGGGAGAUUUUUUCCUCGAGCAA
CUCUCGGUAGCCAAAUUGGUUGAAGGCUCAAGAGUUUAAUUUAUCACUACGAAAUCCAGAGAUCGGGCGUUCGACUCGCUCCCGGGAGAUUUUUUCCUCGAGCAA
CUCUCGGUAGCCAAAUUGGUUUAAGGCGCAAGACUUUAAUUUAUCACUACGAAAACUUGAGAUCGGGCGUUCGACUCGCCCCCGGGAGAUUUUUUCCUCGAGCAA
CUCUCGGUAGCCAAAUUGGUUUAAGGCGCAAGACUUUAAUUUAUCACUACGAAAGCUUGAGAUCGGGCGUUCGACUCGCCCCCGGGAGAUUUUUUCCUCGAGCAA
CUCUCGGUAGCCAAAUUGGUUUAAGGCGCAAGACUUUAAUUUAUCACUACGAAAUCAUGAGAUCGGGCGUUCGACUCGCCCCCGGGAGAUUUUUUCCUCGAGCAA
CUCUCGGUAGCCAAAUUGGUUUAAGGCGCAAGACUUUAAUUUAUCACUACGAAAUCCUGAGAUCGGGCGUUCGACUCGCCCCCCGGAGAUUUUUUCCUCGAGCAA
CUCUCGGUAGCCAAAUUGGUUUAAGGCGCAAGACUUUAAUUUAUCACUACGAAAUCCUGAGAGCGGGCGUUCGACCCGCCCCCGGGAGAUUUUUUCCUCGAGCAA
CUCUCGGUAGCCAAAUUGGUUUAAGGCGCAAGACUUUAAUUUAUCACUACGAAAUCUGGAGAUGGGGCGUUAGACUCGGCCCCGGGAGAUUUUUUCCUCGAGCAA
CUCUCGGUAGCCAAAUUGGUUUAAGGCGCAAGACUUUAAUUUAUCACUACGAAAUCUGGAGAUCGGGCGUUCGACUCGCGGCCGGUUGAUUUUUUCCUCGAGCAA
CUCUCGGUAGCCAAAUUGGUUUAAGGCGCAAGACUUUAAUUUAUCACUACGAAAUCUUGAGAUCGGGCGUACGACUCGCCCCCGGGAGAUUUUUUCCUCGAGCAA
CUCUCGGUAGCCAAAUUGGUUUAAGGCGCAAGACUUUAAUUUAUCACUACGAAAUCUUGAGAUCGGGCGUUCGACACGCCCCCGGGAGAUUUUUUCCUCGAGCAA
CUCUCGGUAGCCAACUUGGUUUGAGGCGCAAGACUUUAAUUUAUCACUACGAAAUCUUGAGAUCGGGCGUUCGACUCGCCCCCGGGAGAUUUUUUCCUCGAGCAA
CUCUCGGUAGCCAACUUGGUUUGAGGCGCAAGAAUUUAAUUUAUCACUACGAAAUCUUGAGAUCGGGCGUUCGACUCCCCCCCGGGAGAUUUUUUCCUCGAGCAA
CUCUCGGUAGCCAACUUGGUUUGAGGCGCAAGACUUUAAUUUAUCACUACGAAAUCUUGAGAUCGGGCGUUCAACUGGCCCCCGGGAGAUUUUUUCCUCGAGCAA
CUCUCGGUAGCCAACUUGGUUUACGGCGCAAGACUUUAAUUUAUCACUACGAAAUCUUGAGAUCGGGCGUUCGACUCGCCCCCGGGAGAUUUUUUCCUCGAGCAA
